Data taken from PubChem BioAssay AID1347417 (National Center for Advancing Translational Sciences (NCATS), 2020).
Screen size: about 120,000 compounds; about 5,300 (4.4%) were called active. This list was built around the results that the source calls inconclusive (neither active nor inactive); the mix of calls is not that of the screen. Calls follow the shape of the dose curve; as a rule, active = well fitted inhibition curve with a large enough effect; inconclusive = small, poorly fitted or top-dose-only effect; inactive = no such curve, though single readings can be large or run the other way. A potency beside an inconclusive call is a rough fit, not a confirmed value.

Test: qHTS Primary assay for Inhibitors of Plasmodium falciparum Dd2 growth in vitro; also: nearly all actives have a fitted effect of over 65% in size
Conditions: P. falciparum Dd2 growth, SYBR Green, 72 h; series mostly up to 28.9 µM
In short: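 Infected erythrocytes (Dd2, 0.3% parasitemia, 2.5% hematocrit final) are added to compound in RPMI-1640/Albumax II medium, grown 72 h at 37C in low oxygen, then lysed with saponin/Triton-X containing SYBR Green and read by fluorescence.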
Potency is read from the fitted curve at half-maximal effect; tags tell the direction and shape of the fitted curve.

SMILES	Potency
CC(=O)Nc1cccc(-c2cn3cccnc3n2)c1	inactive
Cc1cccc(NC(=O)c2c(C)oc3ncnc(N4CCCCC4)c23)c1C	inactive
COc1ccc(CN2C(=O)COC[C@@H]2[C@H](O)c2ccc(NC(=O)Cc3ccccc3)cc2)cc1	inactive
CCc1nncn1C1CCN(C(=O)c2cc(-c3cccs3)[nH]n2)C1 (stereo not given)	inactive
CCc1cccc2c(C(CC(=O)NCC(C)C)c3cccc([N+](=O)[O-])c3)c[nH]c12 (stereo not given)	inactive
CCOC(=O)N1CCN(C(=O)Cn2ncc3c4ccccc4n(Cc4ccc(F)cc4)c3c2=O)CC1	active: 10 µM
CCOC(=O)c1c(NC(=O)COc2ccc(Br)cc2)sc(C(C)=O)c1C	inactive
O=C(COc1ccc(F)cc1)Nc1ccc(Cl)c(-c2nc3ccccc3[nH]2)c1	inconclusive: 10 µM [inhibitor, single point]
CCOC(=O)C1CCN(C(=O)c2ccc3c(c2)N=C(CC)c2cc(C)ccc2S3)CC1	inconclusive: 17.8 µM [inhibitor, single point]
CC(Sc1nc2c([nH]c3ccccc32)c(=O)n1-c1ccccc1)c1ccccc1 (stereo not given)	inconclusive: 10 µM [inhibitor, single point]
COc1ccc(-n2nc3n(c2=O)CCN(Cc2cccc4ccccc24)C3)cc1	inconclusive: 15.8 µM [inhibitor, single point]
CN1CCC2(C1)CN(Cc1ccccc1)c1ccc(C(=O)Nc3ccn(C)n3)cc12 (stereo not given)	inconclusive: 0.708 µM [inhibitor, full curve, poor fit]
CC(=O)N(C1CC1)C1CCOC2(CCN(C(=O)Cc3c(C)noc3C)CC2)C1 (stereo not given)	inactive
CC1CCN(C(=O)C(C)Sc2nc(-c3ccccc3)cc(C(F)(F)F)n2)CC1 (stereo not given)	inconclusive: 12.6 µM [inhibitor, single point]
COc1ccc(OC)c(NC(=O)c2c(C)oc3ncnc(N4CCOCC4)c23)c1	inconclusive: 6.31 µM [inhibitor, partial curve, poor fit]
c1ccc(C(c2ccccc2)N2CCN(Cc3nc(-c4ccccn4)no3)CC2)cc1	inactive
CCCN1C(=O)C2(c3ccccc31)c1c(oc3ccccc3c1=O)C(=O)N2CCCOC(C)C (stereo not given)	inconclusive: 17.8 µM [inhibitor, single point]
Cn1c(=O)cc(SCC(=O)N2CCN(c3ccccc3)CC2)c2ccccc21	inactive
COc1cc(OC)c(NC(=O)N2CC=C(c3c[nH]c4ccccc34)CC2)cc1Cl	inconclusive: 11.2 µM [inhibitor, single point]
O=C(C1CC1)N1CCC2(CC1)CCN(Cc1cccs1)c1ccccc1O2	inconclusive: 14.1 µM [inhibitor, partial curve, poor fit]
COc1ccccc1NC(=O)C1=C(C)Nc2nc(SCc3cccc(F)c3)nn2C1c1ccc(C(=O)O)cc1 (stereo not given)	inconclusive: 22.4 µM [inhibitor, partial curve, poor fit]
COc1cccc(CNC(=O)c2cc3ccc4cccnc4c3[nH]2)c1	inconclusive: 11.2 µM [inhibitor, partial curve]
CCCc1nnc(C[C@@H]2C[C@@H](C(C)C)[C@H](CN3CCN(CCO)CC3)C=C2C)o1	inconclusive: 2.82 µM [inhibitor, single point]
COc1ccccc1Nc1cnc2ccc(-c3ccc(F)cc3)nn12	inconclusive: 0.891 µM [inhibitor, full curve]

SMILES	Potency
CCC(=O)N1CCc2cc(S(=O)(=O)CCC(=O)NCc3ccc(OC)cc3)ccc21	inconclusive: 0.1 µM [inhibitor, full curve, poor fit]
CCCN1CCCCC12Cc1ccccc1CN(C(=O)C1CCCC1)C2 (stereo not given)	inconclusive: 5.62 µM [inhibitor, partial curve, poor fit]
COc1ccc(S(=O)(=O)N2C[C@@H](F)C[C@H]2C(=O)N2CCCCC2)cc1OC	inactive
CN(C)c1ccc(CN2C[C@H](O)C[C@H]2c2nc(-c3cccnc3)no2)cc1	inactive
Cc1ccncc1C(=O)N1CCC2(CC1)NCCc1c2[nH]c2ccccc12	inconclusive: 7.94 µM [inhibitor, partial curve, poor fit]
Cc1ccc(C(=O)N2CCCCCCNC(=O)[C@@H]3CCCC[C@@H]32)s1	inactive
O=C1CCN(S(=O)(=O)c2ccccc2)CCCC(C(=O)NCCc2c[nH]c3ccccc23)CCN1 (stereo not given)	inconclusive: 10 µM [inhibitor, single point]
COc1ccc(N2CC(C(=O)NCCc3ccc(F)cc3)NC2=O)cc1 (stereo not given)	inactive
CCNC(=O)N1CCc2nc(OCCOC)ccc2C1	inactive
COC(=O)N1CCc2nc(-c3ccccc3)nc(-c3ccc(Cl)cc3)c2C1	inactive
CCn1c(CC2C(=O)N(C)c3ccc(Br)cc32)nc2ccccc2c1=O (stereo not given)	inconclusive: 12.6 µM [inhibitor, partial curve]
Cc1ccc(CNC(=O)c2cc3c(s2)CCN(C(=O)c2ccccc2)C3)cc1	inconclusive: 11.2 µM [inhibitor, partial curve, poor fit]
Cc1ccc2nc(N(Cc3cccnc3)C(=O)CCOc3ccccc3)sc2c1	inconclusive: 11.2 µM [inhibitor, single point]
Cn1nc(-c2nncn2CC2CC2)c2c1CCN(C(=O)c1[nH]nc3c1COc1ccccc1-3)C2	inconclusive: 0.282 µM [inhibitor, full curve, poor fit]
Cc1cc2nc3n(c(=O)c2n1CC(=O)Nc1cccc(Cl)c1)CCCC3	inactive
O=C(CN1C(=O)C(c2ccccc2)=NC12CCCC2)NCc1ccccc1	inactive
COc1ccc(CNC(=O)c2cn(-c3cccc(OC)c3)c(=O)c3ccccc23)cc1	inconclusive: 17.8 µM [inhibitor, single point]
Cc1ccc(-n2cccc2CC(=O)NC2CCCC2)cc1	inconclusive: 17.8 µM [inhibitor, single point]
Cc1cc(F)ccc1NC(=O)CCSc1nc(-c2ccco2)cc(C(F)(F)F)n1	active: 8.91 µM
Cc1ccc(C(=O)N2CCCN(S(C)(=O)=O)c3ccccc32)cc1C	inconclusive: 6.31 µM [inhibitor, partial curve, poor fit]
Cc1cccc(OCCc2noc(C3CN(C(=O)NCC4CCCO4)C3)n2)c1 (stereo not given)	inconclusive: 11.2 µM [inhibitor, single point]
COc1ccc(-c2cc3ccc(O)c(CN4CCCC4)c3oc2=O)cc1OC	active: 3.98 µM
Fc1ccc(C2Cn3cnc(-c4nc(-c5ccsc5)no4)c3CO2)cc1 (stereo not given)	inconclusive: 17.8 µM [inhibitor, single point]
CCC1CN(C(=O)N2CCC(C(=O)N3CCN(c4cc(C)ccc4C)CC3)CC2)c2ccccc2O1 (stereo not given)	inconclusive: 10 µM [inhibitor, single point]

SMILES	Potency
CN1CC(=O)N(c2cccnc2)Cc2c1ncnc2N1CCC(c2ccccc2)CC1	inactive
Cc1ccccc1N(C)C1CN([S+](=O)([O-])c2cccs2)C1	inconclusive: 15.8 µM [inhibitor, partial curve, poor fit]
Cc1cc(C(=O)N2C[C@@H](Oc3cccnc3)C[C@H]2C(=O)N2CCCC2)n(C)n1	inactive
O=C(c1cc(-c2ccc(F)cc2)n[nH]1)N1CC2CC(C1)[C@H]1CCCC(=O)N1C2 (stereo not given in full)	inactive
O=C1NCCCCCCN(Cc2ccncc2)[C@@H]2CN(S(=O)(=O)Cc3cccc(F)c3)CC[C@H]12	active: 8.91 µM
COCC(=O)N1CCC2(CCN(Cc3cc(C4CC4)n[nH]3)CC2)C(CO)C1 (stereo not given)	inactive
O=C(Cn1cccc1-c1nc(-c2ccc3c(c2)OCO3)no1)Nc1ccccc1	active: 2.82 µM
COc1ccccc1NC(=O)c1sc2nc(C)c(C(=O)Nc3ccc(C)cc3C)c(-c3ccccc3Cl)c2c1N	active: 5.62 µM
Cc1ccc2oc(=O)c3cc(C(=O)NCCc4ccc(Cl)cc4)sc3c2c1	inactive
CC(C)N1CC[C@H](CO)[C@H](NC(=O)C2CC2)C1	inactive
CC1(C)CN(C(=O)C2(c3ccccc3F)CC2)C[C@]1(C)O	inactive
CCc1ccc([S+](=O)([O-])c2nnn3c2nc(NC2CC2)c2ccccc23)cc1	inconclusive: 8.91 µM [inhibitor, partial curve]
CC(C)c1ccc(Nc2c(-c3ccc(N(C)C)cc3)nc3cnccn23)cc1	inconclusive: 8.91 µM [inhibitor, single point]
Cc1ccc(Nc2c(-c3ccc(C)cc3)nc3c(C)cccn23)cc1	inactive
O=Cc1cccc(-c2ccc(OC(F)(F)F)cc2)c1	inactive
COCCNC(=O)c1cc(-c2ccccc2OC(F)(F)F)cc2ncn(C)c12	inactive
O=C(NCCc1ccc(Cl)cc1)C(=O)NCC(c1cccs1)S(=O)(=O)c1ccccc1 (stereo not given)	inconclusive: 14.1 µM [inhibitor, single point]
O=C(NC[C@H]1C[C@@H]2CCN1C[C@@H]2CN1CCC(Cc2ccccc2)CC1)c1ccccc1	inconclusive: 0.501 µM [inhibitor, full curve]
O=C(c1ccc(Cl)cc1)N1CCC2(C1)C(=O)Nc1ccccc12 (stereo not given)	inactive
CC(C)CCN1CCc2c(n(Cc3cccnc3)n(CCc3ccccc3)c2=O)C1	inconclusive: 11.2 µM [inhibitor, partial curve, poor fit]
CN1CCCCCCN(Cc2ccccn2)[C@H]2CCC[C@H]2C1=O	inconclusive: 5.01 µM [inhibitor, partial curve]
COc1ccc(CCNC(=O)c2cc[nH]c2C2CCCN(C(C)=O)C2)c(OC)c1 (stereo not given)	inactive
